Reference: PubChem BioAssay AID1963576 (National Center for Advancing Translational Sciences (NCATS), 2024)
About 60 (0.1%) of roughly 46,000 compounds were called active. Inconclusive results (about 3%) are left out. Calls follow the shape of the dose curve; as a rule, active = well fitted inhibition curve with a large enough effect; inconclusive = small, poorly fitted or top-dose-only effect; inactive = no such curve, though single readings can be large or run the other way. This is one part of the list.

Assay: Primary qHTS assay for Inhibitors of ovarian cancer metastasis using an organotypic tumor microenvironment (TME) model. Also: nearly all actives have a fitted effect of over 65% in size.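 As to Potency: count of GFP cancer cells still attached after washing and fixation.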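 As to activity change, negative = inhibition: plate controls were DMSO wells for no effect and tomatine positive control wells for full effect.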
Conditions: SKOV3ip1-GFP adhesion/invasion on 3D omental model, fluorescence; series mostly up to 45.8 µM; activity change, negative = inhibition: at the top concentration
Outline: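 Primary human omental fibroblast/mesothelial 3D culture pre-formed 48 h. SKOV3ip1-GFP cells added with compounds (0.36-46 umol/L), incubated 2 h RT/16 h 37 C, fixed; GFP cells quantified at 488/509 nm.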
Potency is read from the fitted curve at half-maximal effect.

| Structure (SMILES) | activity change, negative = inhibition | outcome | Potency |
| --- | --- | --- | --- |
| CCCSC1=NC2(CCN(C(=O)NC3CCCCC3)CC2)N=C1c1ccccc1 | inactive: 0.693% | – | – |
| CSc1ncc(Cl)c(C(=O)Nc2nc3ccc(F)cc3s2)n1 | inactive: 11.6% | – | – |
| COc1cccc(NC(=O)CN(Cc2ccccc2)S(=O)(=O)c2ccc3nc(C)sc3c2)c1 | inactive: -11.7% | – | – |
| CCCCc1nn2c(=O)cc(COC(=O)c3cccc(NC(=O)c4cccc(C)c4)c3)nc2s1 | inactive: -9.47% | – | – |
| CCOC(=O)c1c(S(=O)(=O)NCC(=O)Nc2ccc(Cl)c(C(F)(F)F)c2)c(C)n(C)c1C | inactive: -0.594% | – | – |
| COc1ccc(OC)c(-c2nc(C(N)=O)c3c(n2)n(-c2ccc4c(c2)OCO4)c(=O)n3C)c1 | inactive: 3.35% | – | – |
| Cc1nn(CCCC(=O)NCc2cccc(F)c2)c(=O)c2nn(-c3ccccc3)c(C)c12 | inactive: 6.05% | – | – |
| CCOc1ccc(CNCc2c(C(=O)O)c(C)n(Cc3ccc(F)cc3Cl)c2C)cc1 | inactive: 16.5% | – | – |
| CCN1CCN(C(=O)c2ccc3c(c2)N(Cc2ccccc2)C(=O)c2ccccc2S3=O)CC1 (stereo not given) | – | inactive | – |
| CCCCN(CC)C(=O)CCn1c(=O)c2cccn2c2cccnc21 | inactive: 26.4% | – | – |
| COc1ccccc1C(=O)c1c(N)c(-c2nc(-c3ccccc3)cs2)c2ccccn12 | inactive: -6.22% | – | – |
| CCCN1CCN(c2ncc3c(n2)CCN(Cc2ccc(OC)c(OC)c2OC)C3)CC1 | inactive: 7.71% | – | – |
| Cc1ccc(NC(=O)Cn2nc(-c3ccc(F)cc3)c3cnc4ccc(C)cc4c32)cc1 | inactive: 3.62% | – | – |
| COc1ccccc1-c1noc(-c2ccc(N(C)Cc3ccccc3)c([N+](=O)[O-])c2)n1 | inactive: 4.92% | – | – |
| Cc1ccc(CN2CCCn3nc(C(=O)NCc4ccccc4Cl)cc3C2=O)cc1 | inactive: 12.1% | – | – |
| Cc1ccc(NC(=O)CN(C)S(=O)(=O)c2ccc3c(c2)CCC(=O)N3)c(C)c1 | inactive: 1.35% | – | – |
| CCCCNC(=O)CN1C(=O)CSc2ccc(S(=O)(=O)N3CCC(C)CC3)cc21 | inactive: 5.13% | – | – |
| COc1cccc(CNc2ncc(-c3ccc(Br)cc3)n2C)c1 | inactive: -11% | – | – |
| CC(C)N(C(=O)c1cc2c(Cl)nc3ccccc3c2s1)C1CCCCC1 | inactive: -9.49% | – | – |
| COc1cccc2sc(N3CCN(C(=O)CS(=O)(=O)c4ccc(Cl)cc4)CC3)nc12 | – | inactive | – |
| COc1ccc(-n2c(SCC(=O)Nc3nnc(C)s3)nc3c([nH]c4ccccc43)c2=O)cc1 | – | inactive | – |
| CCOC(=O)c1scc(-c2ccc(C)cc2)c1S(=O)(=O)Nc1cccc(CC)c1 | – | inactive | – |
| Cc1onc(-c2ccc(Br)cc2)c1C(=O)Nc1ccc(Br)cc1F | inactive: 0.444% | – | – |
| Cc1cc(C)c(S(=O)(=O)N2CCN(Cc3nc4ccc(C)cc4o3)CC2)c(C)c1 | inactive: -21.4% | – | – |

| Structure (SMILES) | activity change, negative = inhibition | outcome | Potency |
| --- | --- | --- | --- |
| CC1=C(C(=O)Nc2cc(C)ccc2C)C2(CCCCCC2)OC1=O | – | inactive | – |
| CCN1C(C(=O)c2ccccc2)=C(OC(=O)COc2ccccc2)c2ccccc2S1(=O)=O | – | inactive | – |
| O=C(NCCCN1CCN(c2ccccc2)CC1)c1nnc(Cc2ccc(F)cc2)o1 | inactive: -8.49% | – | – |
| CCOc1ccc(NC(=O)Cn2cc(C(=O)c3ccc(C)cc3)c(=O)c3cc4c(cc32)OCCO4)cc1 | – | inactive | – |
| O=C(O)CC(NS(=O)(=O)c1ccc(Br)s1)c1ccccc1 (stereo not given) | inactive: 3.57% | – | – |
| CCOC(=O)c1ccccc1Nc1cc(C)nc2nc(-c3ccco3)nn12 | inactive: -9.59% | – | – |
| Cc1cccc(C(=O)Nc2cc3c(cc2N2CCOCC2)n(C)c(=O)n3C)c1 | inactive: -9.65% | – | – |
| CC(=O)c1ccc(C(=O)N(Cc2cccnc2)c2nc3c(Cl)cccc3s2)cc1 | inactive: -0.132% | – | – |
| COc1cc2c(cc1OC)C(COc1ccc(F)cc1)N(C(=O)c1ccccc1F)CC2 (stereo not given) | inactive: -28.4% | – | – |
| CSc1cccc(NC(=O)Cn2nc(C)c3sc4ccccc4c3c2=O)c1 | inactive: 4.38% | – | – |
| Cc1cccc(-c2nnc(SCC(=O)N3CCCc4ccccc43)o2)c1 | inactive: -0.745% | – | – |
| COc1ccc(-n2c(C)nc3cc(C(=O)NC4CCCC4)ccc32)cc1 | inactive: 1.54% | – | – |
| Cc1ccc(N2CCN(S(=O)(=O)c3ccc4oc(=O)c5ncn(C)c5c4c3)CC2)c(C)c1 | inactive: 19.2% | – | – |
| CCOCCCNC(=O)Nc1cc(C(=O)NCc2ccc(C(C)C)cc2)ccc1N1CCCC1 | inactive: 0.449% | – | – |
| CC(C)OCCCN(C)C1CCN(S(=O)(=O)c2csc(C(N)=O)c2)CC1 | inactive: 39.3% | – | – |
| Cn1nnnc1SCCNCc1ccccc1OCc1ccc(Cl)cc1Cl | inactive: -6.4% | – | – |
| Cc1cccc(CS(=O)(=O)c2ncc(Cl)c(C(=O)Nc3nc4ccc(F)cc4s3)n2)c1 | – | inactive | – |
| COC(=O)C(C)NC(=O)N1CCN(c2nnc(C)c3c(C)n(-c4ccc(Cl)cc4)nc23)CC1 (stereo not given) | inactive: 2.84% | – | – |
| Cc1ccc(S(=O)(=O)c2nnn3c2nc(NCc2cccs2)c2sccc23)cc1C | – | inactive | – |
| Cc1cc(C)cc(NC(=O)C2CCN(c3cc(C)nc4c(-c5ccc(Cl)cc5)c(C)nn34)CC2)c1 | inactive: -5.23% | – | – |
| O=C(Cc1ccc(F)cc1)NCCc1csc(-c2cccc(F)c2)n1 | inactive: 7.89% | – | – |
| CO[C@@H](C(=O)N1Cc2[nH]nc(NC(=O)c3ccc(N4CCN(C)CC4)cc3)c2C1)c1ccccc1 | – | – | active: 13.2 µM |
| CCOc1ccc(N(CC)S(=O)(=O)N2CCCC(C(=O)NCc3ccc(Cl)cc3)C2)cc1 (stereo not given) | inactive: 4.29% | – | – |
| CC(C)NC(=O)N1CCC(N2CCN(Cc3ccc(F)cc3)C(=O)C2=O)CC1 | inactive: -0.329% | – | – |

| Structure (SMILES) | activity change, negative = inhibition | outcome | Potency |
| --- | --- | --- | --- |
| CN1CCN(C2=Nc3cc(Cl)ccc3Nc3ccccc32)CC1 | inactive: -12.8% | – | – |
| COc1ccc(-c2noc(Cn3c(=O)c4ccccc4n(CC(=O)Nc4cccc(C(F)(F)F)c4)c3=O)n2)cc1 | inactive: -6.74% | – | – |
| Cc1ccc(C)c(NS(=O)(=O)c2ccc3c(c2)n(C)c(=O)n3C)c1 | inactive: 2.36% | – | – |
| Cc1oc(-c2cccc(Br)c2)nc1Cn1c(=O)cc(-c2ccccc2)c2c(C)nn(C)c21 | inactive: 0.329% | – | – |
| O=S(=O)(Nc1cccc(-c2ccc(N3CCCCCC3)nn2)c1)c1ccccc1 | – | inactive | – |
| CCn1c(SCC(=O)N2CCC(C)CC2)nnc1-c1ccccc1O | inactive: -16.5% | – | – |
| CCc1nc2onc(C)c2c(=O)n1CC(=O)O | – | inactive | – |
| O=C(c1cccc(Cl)c1)N(Cc1ccco1)Cc1ccccc1Cl | inactive: -6.87% | – | – |
| Cc1ccc(S(=O)(=O)NCCc2sc3nc(-c4ccccc4)nn3c2C)cc1C | – | inactive | – |
| COc1ccc2c(c1)c1c(c(=O)n(Cc3ccccc3)c(=O)n1CC(=O)Nc1c(C)cccc1C)n2C | inactive: -2.6% | – | – |
| Cc1ccccc1-c1nc(CS(=O)(=O)CC(=O)Nc2cccc(C(F)(F)F)c2)c(C)o1 | – | inactive | – |
| COc1ccc(Cn2c(=O)[nH]c3cc(C(=O)N4CCN(c5ccccc5)CC4)ccc3c2=O)cc1 | – | inactive | – |
| Cc1ccc(CNC(=O)CCC(=O)N2Cc3ccccc3Oc3ncccc32)cc1 | inactive: -11.7% | – | – |
| COc1ccc(OC)c(CCNc2nccn(-c3ccc(C)c(C)c3)c2=O)c1 | inactive: -2.44% | – | – |
| CCCn1ccc2c(OCC(=O)Nc3ccccc3OCC)cccc2c1=O | inactive: 0.955% | – | – |
| Cn1c(SCc2cccc(F)c2)nc2c([nH]c3ccccc32)c1=O | – | inactive | – |
| O=C(NCC(c1cccnc1)N1CCOCC1)C(=O)Nc1ccc(F)cc1 (stereo not given) | inactive: 2.57% | – | – |
| CCOC(=O)c1ccc2c(c1)N(Cc1cccc(C(F)(F)F)c1)C(=O)c1ccccc1S2(=O)=O | – | inactive | – |
| O=C(Cn1c(=O)n(-c2ccc(F)cc2)c(=O)c2sc3ccccc3c21)NC1CCCCC1 | inactive: 5.14% | – | – |
| CCCOc1ccc(Nc2cc(C)nc(C)n2)cc1 | inactive: 1.84% | – | – |
| CCc1ccccc1Nc1cc(C(=O)NCCc2ccccc2)c2ccccc2n1 | inactive: -3.37% | – | – |
| COc1ccc(N2CCN(Cc3cc(=O)oc4ccc(OC)cc34)CC2)cc1 | – | inactive | – |
| COc1ccccc1NC(=O)C1=C(C)Nc2nc3ccccc3n2C1c1cccc(Br)c1 (stereo not given) | – | inactive | – |
| COc1ccc(C(=O)Oc2c(Sc3ccccc3)c(C)nn2-c2ccccc2)cc1OC | inactive: -3.13% | – | – |

| Structure (SMILES) | activity change, negative = inhibition | outcome | Potency |
| --- | --- | --- | --- |
| Cc1ccc(NC(=O)CN2C(=O)CSc3ccc(S(=O)(=O)N4CCCC4)cc32)c(C)c1 | – | inactive | – |
| COCCCNS(=O)(=O)c1ccc(N2CCCCS2(=O)=O)cc1 | inactive: -4.15% | – | – |
| COc1ccc(CCNC(=O)C2CCN(c3nc4ccccc4nc3C(F)(F)F)CC2)cc1OC | – | inactive | – |
| COc1ccc(-c2coc3c2c(C)cc2oc(=O)c(C)c(C)c23)cc1 | inactive: 7.81% | – | – |
| CC1CCC(Nc2ncnc3onc(-c4ccc(Cl)cc4)c23)CC1 (stereo not given) | inactive: -2.51% | – | – |
| CCN(CCO)CCCOc1ccc2c(Nc3cc(CC(=O)Nc4cccc(F)c4)[nH]n3)ncnc2c1 | inactive: 7.26% | – | – |
| CC(=O)OCc1cnc(C)c2oc(=O)c(C(=O)Nc3ccc(C)cc3Cl)cc12 | inactive: -0.242% | – | – |
| COc1ccc(NC(=O)C2=C(C)C(=O)OC23CCN(C(C)C)CC3)cc1Cl | – | inactive | – |
| Cc1ccccc1NC(=O)CSc1nc2ccc(NC(=O)c3ccccc3)cc2s1 | inactive: -2.66% | – | – |
| Cc1cccc(OCC(=O)Nc2ccc3nc(Nc4cccc(C(F)(F)F)c4)cc(C)c3c2)c1 | inactive: -3.89% | – | – |
| CCCCN1C(=O)CN(C2CCCCCC2)C(=O)C1c1ccc(OC(C)C)c(OC)c1 (stereo not given) | – | inactive | – |
| Cc1ccc(CNC(=O)c2oc3ccc(S(=O)(=O)N4CCC(C)CC4)cc3c2C)cc1 | inactive: -2.11% | – | – |
| COc1ccccc1CNC(=O)c1ccc2c(c1)N(Cc1cc(C)ccc1C)C(=O)c1ccccc1S2 | inactive: 3.12% | – | – |
| CCCCNC(=O)c1cc2c(=O)n3cccc(C)c3nc2s1 | inactive: -0.319% | – | – |
| CC(=O)c1cc(-c2ccccc2)n(CCC(=O)Nc2ccc(C(C)C)cc2)c1C | inactive: -6.35% | – | – |
| Cc1ccc(-n2ncc(C(=O)N3CCN(Cc4ccccc4)CC3)c2C2CCN(C(=O)OC(C)(C)C)CC2)cc1 | inactive: 0.409% | – | – |
| CCOc1ccc(NC(=O)Cn2cc(C(=O)c3ccc(F)cc3)c(=O)c3cc4c(cc32)OCCO4)cc1 | inactive: 0.308% | – | – |
| COc1ccc(-c2cc(C(F)(F)F)n3nc(C(=O)O)c(Cl)c3n2)cc1OC | inactive: 2.49% | – | – |
| CC(C)(C)OC(=O)N1CCC(c2c(C(=O)NCCN3CCCC3)cnn2-c2ccc(Cl)cc2)CC1 | inactive: -5% | – | – |
| Cc1ccc(-n2ccnc(NCCc3ccc(S(N)(=O)=O)cc3)c2=O)c(C)c1 | – | inactive | – |
| COc1ccc(NC(=O)Cn2cnc3ccc(S(=O)(=O)N4CCC(C)CC4)cc3c2=O)cc1Cl | – | inactive | – |
| CCOc1ccc(/C=C/c2nc(C#N)c(NC3CCCCC3)o2)cc1 | inactive: 8.25% | – | – |
| Cc1oc(-c2ccc(C(=O)NCc3ccc(F)cc3)cc2)nc1CS(=O)c1ccccc1 (stereo not given) | inactive: -7.84% | – | – |
